In all, about 110,000 compounds were measured (“z-score”: median about -0.1, highest 2% from about 2 on). This is one part of the list. Activity calls are given as the source filed them.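 Rule for the calls: active = z-score in the third read window above 3 or below -3; inactive = the rest.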
Each molecule was assayed against Metabotropic glutamate receptor 8 (Rattus norvegicus) (UniProt P70579) (assay: mGluR8 Gi/Go-coupled signaling modulation – cell-based, rat, thallium flux, HTS, primary screen (AID 488969)). Details: HEK293 rat mGluR8, GIRK (G protein-gated inwardly rectifying potassium channel) thallium flux, FluoZin2; at 10 µM; stronger effect = higher value; submaximal glutamate (EC20) added with thallium.
Sequence of UniProt P70579 (P70579 whole entry, looked up): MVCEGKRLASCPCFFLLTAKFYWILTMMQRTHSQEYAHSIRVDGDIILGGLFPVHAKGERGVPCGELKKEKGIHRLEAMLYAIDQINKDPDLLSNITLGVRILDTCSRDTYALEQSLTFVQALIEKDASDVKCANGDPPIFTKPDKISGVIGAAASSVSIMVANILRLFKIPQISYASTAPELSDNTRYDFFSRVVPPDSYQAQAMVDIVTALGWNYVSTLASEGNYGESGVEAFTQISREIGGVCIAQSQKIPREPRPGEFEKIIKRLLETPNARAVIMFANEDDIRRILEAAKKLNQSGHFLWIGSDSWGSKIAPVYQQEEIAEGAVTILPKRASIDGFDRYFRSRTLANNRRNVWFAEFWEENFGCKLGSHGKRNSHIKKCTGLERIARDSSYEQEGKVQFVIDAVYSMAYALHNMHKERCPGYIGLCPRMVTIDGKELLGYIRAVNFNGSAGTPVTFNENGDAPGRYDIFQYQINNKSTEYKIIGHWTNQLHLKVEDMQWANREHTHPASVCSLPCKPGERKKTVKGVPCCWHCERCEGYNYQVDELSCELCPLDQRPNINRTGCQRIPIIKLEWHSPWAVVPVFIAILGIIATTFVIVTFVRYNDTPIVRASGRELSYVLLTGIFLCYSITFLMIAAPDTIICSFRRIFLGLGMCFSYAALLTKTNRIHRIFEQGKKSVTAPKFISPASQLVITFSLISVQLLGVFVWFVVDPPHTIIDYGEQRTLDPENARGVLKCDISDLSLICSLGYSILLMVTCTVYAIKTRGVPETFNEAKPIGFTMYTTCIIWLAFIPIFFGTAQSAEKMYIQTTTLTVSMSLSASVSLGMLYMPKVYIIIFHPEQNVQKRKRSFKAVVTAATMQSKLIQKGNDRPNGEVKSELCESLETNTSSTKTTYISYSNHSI
With `CCc1nc(SCC(=O)NCc2ccc(F)cc2)c2c(=O)n(C)c(=O)n(C)c2n1` the z-score was 0.254.
`COc1ccc2nc(N3C(=O)CC(Cc4ccc(Cl)cc4)C3=O)sc2c1` (configuration not stated) gave a z-score of -0.21.
`O=C(/C=C/c1ccc(F)cc1)Nc1cc(S(=O)(=O)N2CCOCC2)ccc1N1CCCC1` showed a z-score of -0.192.
`CCCCC(=O)Nc1cccc(NC(=O)C(C)C)c1` was tested, and the z-score was -0.297.
With `CCCCNC(=O)CNC(=S)N(Cc1ccccc1)Cc1cccnc1` the z-score was -0.224.
With `COc1ccccc1/C=C/C1=NC(=C\N(C)C)/C(=O)O1` the z-score was -0.339.
Molecule `Cc1cc(N2CCOCC2)nc(SCc2c(Cl)cccc2Cl)n1` has a z-score of -0.0363.
For `CCC(=O)Nc1ccc(Cl)c(NC(=O)C(C)C)c1`, the z-score was 0.418.
With `CCOc1ccc(S(=O)(=O)N(CCO)CCO)cc1-c1nc2c(C(C)(C)C)nn(C)c2c(=O)[nH]1` the z-score was -0.717.
Molecule `O=C1C(C=Nc2ccccc2)=C(O)c2ccccc21` has a z-score of 0.275.
`COc1ccccc1-c1nnc(SCC(=O)N2CCC(C)CC2)o1` showed a z-score of 0.803.
`CCc1ccc(OCC(=O)NC(NC(=S)Nc2ccc(C)cc2C)C(Cl)(Cl)Cl)cc1` (configuration not stated) was tested, and the z-score was 0.136.
`Cc1cccc(NC(=S)NC2CC3CCCC(C2)N3CC(C)C)c1` (configuration not stated) showed a z-score of 0.663.
For `Nc1ccc(C(=O)Nc2nc3ccccc3s2)cc1`, the z-score was -0.363.
Work on `Cc1ccc(-c2oc3ncnc(N)c3c2-c2ccc(C)cc2)cc1` yielded a z-score of -0.0208.
For `Cc1cc(NC(=O)CSc2ncccn2)no1`, the z-score was 0.325.
Molecule `COc1ccc(Cl)c(NC(=O)Nc2c(C)n(-c3ccccc3)c(=O)n2C)c1` has a z-score of 1.18.
For `CC(C)COc1ccc(C(=O)N/C(=C\c2cccc([N+](=O)[O-])c2)C(=O)OC(C)C)cc1`, the z-score was -0.33.
In the case of `Nc1c(NC(=O)CC[n+]2ccccc2)cccc1[N+](=O)[O-]`, the z-score is reported as -0.292.
`CNc1nc(SCc2ccccc2)nc(N2CCOCC2)n1` gave a z-score of -0.587.
`S=c1[nH]nc(Cc2sc(-c3ccccc3)nc2-c2ccccc2)o1` gave a z-score of 0.186.
`COc1cc(OC)cc(C(=O)N(CN2CCCC2=O)c2ccccc2OC)c1` gave a z-score of -0.105.
`CCOC(=O)c1c(-c2ccccc2)csc1NC(=S)N(CC)CC` showed a z-score of 0.121.
Work on `O=C(Nc1cccnc1)Nc1ccc(F)c(Cl)c1` yielded a z-score of 0.00894.
`CCOc1ccc(N2C(N)=NC(N)=NC2(C)C)cc1` was tested, and the z-score was -0.0608.
With `CCc1ccc(N(C(=O)CNC(=O)c2cccs2)C(C(=O)NC(C)(C)C)c2cc(OC)c(OC)c(OC)c2)cc1` (configuration not stated) the z-score was -0.29.
For `C[N+]1(CC(O)COc2ccccc2)CCN(C(=O)c2ccc([N+](=O)[O-])cc2)CC1` (configuration not stated), the z-score was -0.448.
Molecule `COc1cc(/C=N/NC(=O)C(C)n2nnc3ccccc32)ccc1O` (configuration not stated) has a z-score of -0.414.
For `COC(=O)c1cccc(N2C(=O)C3CC=CCC3C2=O)c1` (configuration not stated), the z-score was 0.154.
For `Cc1ccc(-n2c(-c3cccnc3)n[nH]c2=S)c(C)c1`, the z-score was -0.0849.
Molecule `COc1ccc(NC(=O)c2ocnc2C)cc1OC` has a z-score of -0.369.
`CCOC(=O)N1CCN(C(=S)Nc2cc(OC)c(OC)cc2C(=O)OC)CC1` was tested, and the z-score was -0.261.
With `O=C(CN1CCc2ccccc2C1)Nc1cc(S(=O)(=O)N2CCOCC2)ccc1N1CCOCC1` the z-score was -1.04.
In the case of `Cc1cccc(OCCCC(=O)Nc2ccc(N(C)C)cc2)c1`, the z-score is reported as -0.175.
`O=C(NC1CCCCC1)NC1CC2CCC(C1)N2C(=O)NC1CCCCC1` (configuration not stated) showed a z-score of 0.494.
For `CCNc1ccc(Br)cc(C(=O)/C=C/c2ccc(Cl)cc2Cl)c1=O`, the z-score was 0.0685.
Molecule `CC(OC(=O)c1ccc(S(=O)(=O)NCc2ccco2)cc1)C(=O)Nc1ncc(Cl)cc1Cl` (configuration not stated) has a z-score of -0.205.
`Cn1c(C(=O)OC(C(=O)NC2CCCC2)c2ccncc2)cc2sccc21` (configuration not stated) showed a z-score of -0.512.
`CCC(C)NS(=O)(=O)c1ccc(OCC(=O)Nc2ccc3c(c2)OCCO3)cc1` (configuration not stated) gave a z-score of -0.437.
`O=C(NCc1cccc(Cl)c1)c1cccnc1` gave a z-score of -0.0529.
`Cn1ccs/c1=N\S(=O)(=O)c1ccc(C(C)(C)C)cc1` gave a z-score of 0.371.
Molecule `Cc1nn(-c2ccccc2)c(C)c1NS(=O)(=O)c1ccccc1` has a z-score of 0.244.
Molecule `CC1(C)CC(C(CC(=O)Nc2nccs2)c2ccccc2)CCO1` (configuration not stated) has a z-score of -0.0568.
Work on `CCOc1ccc(Cc2n[nH]c(=S)n2N)cc1` yielded a z-score of -0.213.
For `c1ccc(N2CCN(c3c4c(nc5ncnn35)CCC4)CC2)cc1`, the z-score was -0.139.
Work on `Cc1ccc(C(NC(=O)N2CCOCC2)C(Cl)(Cl)Cl)cc1F` (configuration not stated) yielded a z-score of -0.0287.
`CC(=O)Nc1nnc(SCC(=O)N2CCN(Cc3ccccc3)CC2)s1` gave a z-score of -0.0425.
With `O=c1cc(O)n(-c2ccccc2)c(=S)[nH]1` the z-score was -0.0388.
`Cc1cc(-c2nn3c(C)nnc3s2)ccc1NC(=O)C(C)(C)C` showed a z-score of 0.038.
In the case of `CCOC(=O)C1CCCN(C(=O)/C=C/c2ccccc2[N+](=O)[O-])C1` (configuration not stated), the z-score is reported as -0.101.
For `Cc1ccc(NC(=O)C2COc3ccccc3O2)nc1` (configuration not stated), the z-score was 0.189.
`CC1CCCCC1NC(=O)c1nn(C)c(=O)c2ccccc12` (configuration not stated) showed a z-score of -0.289.
For `O=C(CCCOc1ccc(Cl)cc1Cl)Nc1cccnc1`, the z-score was -0.0915.
Molecule `Cn1nc(-c2ccc(N3CCCCC3)c(NC(=O)c3ccco3)c2)c2ccccc2c1=O` has a z-score of -1.88.
`Cc1ccc(-c2noc(COc3ccc4c(c3)OCO4)n2)cc1` was tested, and the z-score was -0.183.
Molecule `Cc1nn(-c2ccc(F)cc2)c(Cl)c1/C=C/C(=O)OCC(=O)Nc1ccc(F)cc1F` has a z-score of -0.164.
Molecule `COc1ccc(/C(O)=C2\C(=O)C(=O)N(c3cc(C)on3)C2c2cccc(OC)c2OC)cc1C` (configuration not stated) has a z-score of -0.187.
In the case of `Cc1cccc(C)c1NC(=O)CSc1nc2ccccc2c(=O)[nH]1`, the z-score is reported as 0.493.
For `Cc1cccc(-n2c(=O)[nH]c3c(C(N)=O)nc(C(C)C)nc32)c1`, the z-score was -0.0464.
In the case of `CCOC(=O)/C(=C/c1ccc(OC(=O)c2ccccc2)cc1)C(C)=O`, the z-score is reported as 0.777.
Work on `CCOC(=O)C(NC(=O)c1ccccc1)(Nc1nnc(C)s1)C(F)(F)F` (configuration not stated) yielded a z-score of -0.152.
Work on `COC(=O)c1cc(C)sc1NC(=O)CCCC(=O)O` yielded a z-score of -0.45.
For `O=C(Nc1sc2c(c1C(=O)c1ccc(Cl)cc1)CCCC2)c1cccnc1`, the z-score was -0.771.
`O=C(Nc1ccccc1)ON=C1c2ccccc2-c2ccccc21` was tested, and the z-score was -0.235.
`Cc1cc2oc(=O)cc(CN3CCCCC3C)c2c(C)c1Cl` (configuration not stated) gave a z-score of 0.58.
Molecule `CCOC(=O)c1cc(-c2ccccc2)sc1NC(=O)C(C)(C)C` has a z-score of -0.178.
Work on `Cc1cc(C(=O)N2CCN(c3ccccc3)CC2)c(C)o1` yielded a z-score of 0.825.
`CC(C)CNC(=O)[C@H](Cc1ccccc1)NC(=O)c1ccco1` was tested, and the z-score was 1.28.
`CCNCc1nc2cc(OC)c(OC)cc2c(=O)[nH]1` showed a z-score of -0.0665.
With `CCC(C)c1ccccc1NC(=O)c1cccnc1` (configuration not stated) the z-score was -0.0512.
`COc1ccc(CN2C(=O)CN=C2Nc2cc(C)ccc2C)cc1` was tested, and the z-score was 0.232.
Work on `CCc1ccc(OCC(=O)Nc2cccc3c2CCCC3)cc1` yielded a z-score of -0.0837.
`O=C(CN(C(=O)CCC(=O)Nc1nccs1)c1ccc2c(c1)OCO2)NCC1CCCO1` (configuration not stated) was tested, and the z-score was -0.616.
`COC(=O)c1c(O)cc(C(C)(C)C)n(-c2ccccc2)c1=O` showed a z-score of 0.104.
`CCN(CC)S(=O)(=O)c1ccc(/C=C/C(=O)Nc2ccc(Br)cc2F)cc1` gave a z-score of -0.05.
`CCC(=O)c1ccc(OCc2ccc(C(=O)OC)cc2)c(OC)c1` showed a z-score of 0.0803.
Molecule `COc1ccc(NC(=O)COC(=O)c2ccc(NS(=O)(=O)/C=C/c3ccccc3)cc2)cc1` has a z-score of -0.128.
In the case of `Cc1ccc(NCN2C(=O)C3CC=CCC3C2=O)cc1` (configuration not stated), the z-score is reported as -0.247.
For `COc1ccc(NC(=O)CSc2ncn[nH]2)c([N+](=O)[O-])c1`, the z-score was -0.152.
Molecule `COc1ccc(-c2noc(CN3CCOCC3)n2)cc1OC` has a z-score of -0.408.
Work on `Cc1ccc(-c2nc3cc(NC(=O)C(C)C)ccc3o2)cc1C` yielded a z-score of 0.689.
Work on `C=CCn1c(Cc2cccc3ccccc23)n[nH]c1=S` yielded a z-score of 0.0356.
Work on `CCN(CC)S(=O)(=O)c1cccc(C(=O)NC(C(=O)Nc2nnc(C)s2)C(C)C)c1` (configuration not stated) yielded a z-score of -0.343.
Work on `COc1cccc(-n2c(Cn3nc(C(F)(F)F)cc3C)n[nH]c2=S)c1` yielded a z-score of 0.929.
With `COC(=O)COC(=O)c1ccc(-n2nnnc2SC)cc1` the z-score was -0.306.
With `CC(C)NC(=O)C1CCCN(S(=O)(=O)c2cccs2)C1` (configuration not stated) the z-score was -0.102.
In the case of `Cc1ccc(S(=O)(=O)N/N=C\c2ccc([N+](=O)[O-])o2)cc1`, the z-score is reported as 0.118.
Molecule `CCC(C)[C@H](NC(=O)N1CCCC1)C(=O)OC` (some centres not stated) has a z-score of 0.194.
For `COc1ccc(OC)c(CNC(=O)C2CCCN(c3nc4ccccc4o3)C2)c1` (configuration not stated), the z-score was -0.601.
In the case of `Cc1ccc(C)c(-n2nnnc2SCC(=O)NCCC2=CCCCC2)c1`, the z-score is reported as -0.195.
Molecule `O=C(NCc1ccc(N2CCCC2=O)cc1)c1cnccn1` has a z-score of -0.188.
For `Cc1nc2ccc(C(=O)O)cc2[nH]1`, the z-score was -1.01.
For `Cc1cc(C(=O)CSc2n[nH]c(N)n2)c(C)n1C1CC1`, the z-score was 0.00139.
Molecule `CC(Oc1ccccc1Cl)C(=O)/C=C/N(C)C` (configuration not stated) has a z-score of 0.236.
With `N#CC1=C(N)Oc2n[nH]c(-c3cccs3)c2C1c1ccoc1` (configuration not stated) the z-score was active: -3.2.
`O=C(N/N=C/c1ccccc1)c1cc(=O)[nH]c2ccccc12` showed a z-score of -0.147.
Molecule `O=C(C1CCCN(S(=O)(=O)Cc2ccccc2)C1)N1CCC(Cc2ccccc2)CC1` (configuration not stated) has a z-score of -0.416.
Molecule `N#CC1=C(SCC(=O)NCc2ccccc2)NC(=O)CC1c1ccco1` (configuration not stated) has a z-score of 1.77.
Molecule `COc1cc(Br)c(C(C)NC(=O)c2ccccc2)cc1OC` (configuration not stated) has a z-score of 0.122.
`CC(=O)NC(C)C(=O)OCC(=O)Nc1ccc(Br)cc1` (configuration not stated) showed a z-score of 0.183.
For `CCOC(=O)N1CCN(CC(O)COc2ccccc2C(C)CC)CC1` (configuration not stated), the z-score was -0.362.
In the case of `Cc1cccc(NC(=O)c2cc(NC(=O)c3ccco3)ccc2Cl)n1`, the z-score is reported as -0.288.
`Cc1ccccc1NC(=O)CSC1=C(C#N)C(c2ccsc2)CC(=O)N1` (configuration not stated) gave a z-score of 0.153.
`Cn1c(=O)cc(SCC(=O)Nc2ccccn2)c2ccccc21` was tested, and the z-score was 1.2.
`CCOC(=O)N1CCN(c2cc(=O)n(Cc3ccc(F)cc3)c(=O)[nH]2)CC1` was tested, and the z-score was -0.547.
Work on `CC(=O)Nc1sc2c(c1C(=O)N1CCOCC1)CCCCC2` yielded a z-score of -0.374.
With `Nn1c(-c2cccs2)nc2sc3c(c2c1=O)CCCC3` the z-score was 0.457.
Molecule `COc1ccc(C(=O)NCC(=O)Nc2ccccc2)cc1OC` has a z-score of 0.402.
For `CC(C)c1ccccc1NC(=S)NC1CCN(Cc2ccccc2)CC1`, the z-score was -0.495.
Molecule `CCCn1c(=N)n(CC(=O)OCC)c2ccccc21` has a z-score of -0.118.
For `Cc1c(CCC(=O)O)c(=O)n2c([nH]c3ccccc32)c1C#N`, the z-score was -0.166.
With `COc1cccc(CN(CC(=O)NC2CCCC2)C(=O)Cn2nnc(-c3cccs3)n2)c1` the z-score was -0.121.

Reference: PubChem BioAssay AID488969 (Vanderbilt High Throughput Screening Facility, 2010)
